Among all 52,000 compounds or so, about 1,700 (3.3%) were called active. Rule as the data show it: active = survival mostly below about 52% (no sharp cut-off); inactive = mostly above about 56%. This is one part of the list.

For the experiment, the system named is Wild type. Kind of experiment: growth inhibition of S. aureus wild type versus tarO mutant, primary screen, teichoic acid synthesis inhibitors, RN4220, OD600 (AID 463173). Particulars: S. aureus RN4220 wild type/DeltatarO growth, OD600, 18 h, hits give low values, screened at 18.75 µg/mL (by protocol).
As to `Cc1cc(Nc2ccc(C(C)C)cc2)nc(-n2nc(C)cc2C)n1`, the survival is inactive: 57%.

`Cc1ccc(NC(=O)CSc2nc(-c3cccs3)cc(C(F)(F)F)n2)cc1C`: the survival is inactive: 125%.

Regarding `COc1cc(-c2noc(-c3ccc(NC4CCCCC4)c([N+](=O)[O-])c3)n2)cc(OC)c1OC`, the survival is inactive: 86%. The same measure for `O=C(NCCN1CCOCC1)c1ccc(NC(=O)C2COc3ccccc3O2)cc1` (stereo not given): inactive: 111%. The same measure for `O=C(c1ccc2c(c1)N(Cc1ccccc1F)C(=O)c1ccccc1S2=O)N1CCCCC1` (stereo not given): inactive: 89%; for `COc1ccccc1C(=O)Nc1ccccc1SCc1cc(=O)c2ccccc2[nH]1`: inactive: 68%. With `CCN(CC)C(=O)Cn1c(=O)n(CCCCCC(=O)NCc2ccccc2)c(=O)c2sccc21`, the survival was inactive: 74%.

Regarding `CCOc1cc(/C=C(\C#N)C(=O)Nc2ccccc2C)ccc1OCc1cc(=O)n2nc(CC)sc2n1`, the survival is inactive: 136%. In the case of `Cc1ccn(CC(C)C(=O)O)n1` (stereo not given), the survival is inactive: 107%. As for `c1ccc(CNc2nnnn2-c2ccccc2)cc1`, the survival was inactive: 106%. As for `O=C(NC1CC(=O)N(c2ccc(F)cc2)C1)C1CCCCC1` (stereo not given), the survival was inactive: 65%. The same measure for `COc1cccc(C(c2c(O)cc(C)n(Cc3ccco3)c2=O)N2CCC(C)CC2)c1` (stereo not given): inactive: 81%. As for `CN(CC(=O)O)Cc1nc2ccccc2[nH]1`, the survival was inactive: 105%.

In the case of `CCOc1ccc(-c2csc(-c3nc(-c4ccc(Br)s4)cs3)n2)cc1`, the survival was inactive: 63%. As for `Cc1nnc(SCC(=O)NCc2ccc(N(C)C)cc2)c2nn(-c3ccccc3)c(C)c12`, the survival is inactive: 84%.

`Cc1ccc(NC(=O)C2CCN(c3nnc(-n4cccc4)s3)CC2)cc1Cl`: the survival is inactive: 79%. On to `COc1ccc(OC)c2sc(N(Cc3cccnc3)C(=O)c3ccc(C(C)=O)cc3)nc12`, for which the survival was inactive: 129%. For `COc1ccc(-c2nc(C)c(CCNC(=O)c3cc(OC)c(OC)c(OC)c3)s2)cc1OC`, the survival is inactive: 57%.

With `Cc1ccc(C)c(N2CCN(S(=O)(=O)c3ccc4c(c3)CC(=O)N4C)CC2)c1`, the survival was inactive: 140%. The same measure for `Cc1ccc(C(=O)COC(=O)c2cccc(NC(=O)c3ccc(Br)cc3)c2)cc1`: inactive: 74%.

As for `CC(C)CCNC(=O)c1cccc(-n2cnc3cccnc32)c1`, the survival is inactive: 136%. For the compound `CCCN(C(=O)Cc1c(C(=O)O)[nH]c2ccc(Cl)cc12)c1ccc(OCC)cc1`, the survival was inactive: 53%. For `CCc1ccc2[nH]c(=O)c(C(c3nnnn3C3CCCC3)N(C)Cc3ccccc3)cc2c1` (stereo not given), the survival was inactive: 101%.

Take `CCCCN(CC)CCCNC(=O)C1CCN(c2nc3ccc(CC)cc3s2)CC1`: the survival is inactive: 79%. The same measure for `COc1cccc(CNC(=O)Cn2c(SCC(=O)Nc3ccc(F)cc3)nc3ccccc32)c1`: active: 0%; for `Cc1cccc(CS(=O)(=O)Cc2ccc(C(=O)NC(C)c3ccccc3)o2)c1` (stereo not given): inactive: 74%; for `Cc1ccc2c(c1)-c1c(c(C(=O)NCCc3ccccc3)nn1C)CS2`: active: 10%. In the case of `CCOCCCNC(=O)c1[nH]c2cc(OC)ccc2c1Sc1ccccc1`, the survival is inactive: 86%. As to `COc1ccc(CCC(=O)NCc2nc3cccnc3n2Cc2ccc(C)cc2)cc1`, the survival was inactive: 68%. Regarding `C=CCN1C(=O)C(CCC(=O)O)NC1=S` (stereo not given), the survival was inactive: 91%. The same measure for `Cc1ccc(S(=O)(=O)NCC(c2ccco2)N2CCN(c3ccccc3F)CC2)cc1` (stereo not given): inactive: 84%. `Cc1cccc(N(CC(=O)Nc2cccc(Cl)c2C)S(C)(=O)=O)c1C`: the survival was inactive: 70%. Under `COC(=O)c1c(NC(=O)c2nc(SCc3ccc(C)cc3)ncc2Cl)sc2c1CCCC2` stands inactive: 85%; under `N#Cc1ccccc1NC(=O)Nc1ccccc1`, inactive: 108%.

Regarding `CCCN1C(=O)CN(C2CCCCC2)C(=O)C1c1ccc(OC)c(OC)c1` (stereo not given), the survival was inactive: 84%. Under `COc1ccc(NC(=O)Cn2c(=O)n(CCC(=O)NCCc3ccc(OC)c(OC)c3)c(=O)c3ccccc32)cc1Cl` stands inactive: 92%. Under `Cc1nn(CC(=O)O)c(C)c1C` stands inactive: 121%; under `CCNc1nc(NCC)nc(N(C#N)CC)n1`, inactive: 110%; under `CCCCCNS(=O)(=O)c1ccc(N2CCCCS2(=O)=O)cc1`, inactive: 68%. Consider `O=C(NC1CC1)c1ccc(Cn2c(SCc3ccccc3F)nc3cccnc32)cc1`, for which the survival is inactive: 113%.

For `CC(C)COc1ccc(-c2nnn(CC(=O)N3C(C)CCCC3C)n2)cc1` (stereo not given), the survival was inactive: 102%. Under `Cc1ccc2c(=O)cc(C(=O)Nc3ccc(S(=O)(=O)Nc4onc(C)c4C)cc3)oc2c1` stands inactive: 110%. Under `Cc1cccc(-n2ncc(C(=O)N3CCN(C(=O)c4ccco4)CC3)c2C2CCN(C(=O)OC(C)(C)C)CC2)c1` stands inactive: 83%; under `Cc1ccc2c(c1)c(=O)c(C(=O)c1ccncc1)cn2CC(=O)Nc1ccc(C(C)C)cc1`, inactive: 105%. Take `COC(=O)C(C)Nc1n[nH]c(=S)[nH]c1=O` (stereo not given): the survival is inactive: 125%. Take `CC(NC(=O)C(=O)Nc1c2c(nn1-c1ccccc1)CSC2)c1ccccc1` (stereo not given): the survival was inactive: 55%.

On to `Cc1ccc(N2CC(NC(=O)c3ccc(Br)o3)CC2=O)cc1C` (stereo not given), for which the survival is inactive: 32%. The same measure for `COc1cccc(NC(=O)Cn2nc3c4ccccc4n(Cc4cccc(F)c4)cc-3c2=O)c1`: inactive: 119%; for `Cc1nn(CCC(=O)NCc2ccc(N(C)C)cc2)c(=O)c2nn(-c3ccccc3)c(C)c12`: inactive: 87%.

Regarding `Cc1nnc(N2CCN(c3ccccc3F)CC2)c2c1nnn2Cc1ccccc1Cl`, the survival is inactive: 89%. The same measure for `CC(C)(C)c1ccc(C(=O)Nc2ccc(-c3nc4cc(Cl)ccc4o3)cc2)cc1`: inactive: 81%; for `CCOc1ccc(NCc2cccn2-c2nnc(N3CCC(C(=O)NCc4ccc(C)cc4)CC3)s2)cc1`: inactive: 91%.

Regarding `NC(CSC1CCCCO1)C(=O)O` (stereo not given), the survival was inactive: 113%.

On to `COc1ccc(N2CCN(CC(O)COc3ccc(C(C)C)c(C)c3)CC2)cc1` (stereo not given), for which the survival was inactive: 85%. As for `CCc1nnc(NC(=O)CSc2nccn2Cc2ccc(F)cc2)s1`, the survival is inactive: 129%. With `COc1ccc2nc3oc(C(=O)N(C)c4ccc(Cl)cc4)cc3cc2c1`, the survival is inactive: 86%.

`CC(=O)Nc1ccc(S(=O)(=O)N2CCN(c3nc4ccccc4s3)CC2)cc1`: the survival was inactive: 98%.

For the compound `CCCN(C(=O)Cn1nc(Cc2cccnc2)c2ccccc2c1=O)c1ccc(C(C)C)cc1`, the survival was inactive: 98%.

In the case of `CCc1ccccc1NC(=O)Cn1c(=O)oc2ccccc21`, the survival was inactive: 59%. `CCOc1ccc(CCNC(c2nnc(-c3ccccc3)o2)c2ccccc2Cl)cc1OCC` (stereo not given): the survival was active: 4%. Under `Cc1ccc(S(=O)(=O)Nc2nc3n(n2)C(c2ccc(Cl)cc2)C=C(c2ccccc2)N3)cc1` (stereo not given) stands active: -4%; under `O=C(CN1C(=O)CC(c2ccco2)Sc2ccccc21)Nc1ccc(OC(F)(F)F)cc1` (stereo not given), inactive: 85%. In the case of `COc1ccc(CCNC(=O)c2cc(-c3ccc(C)c(C)c3)nc3ccccc23)cc1OC`, the survival was inactive: 128%. The same measure for `CCCn1c2ccc(C)cc2c2nnc(SCCN3CCCCC3)nc21`: inactive: 114%; for `CC1=C(C(=O)OC2CCCCCC2)C(c2c(Cl)cccc2Cl)CC(=O)N1` (stereo not given): inactive: 13%; for `COc1ccc(C(=O)NCC(c2cccs2)S(=O)(=O)c2cccs2)cc1` (stereo not given): inactive: 68%. For `Cc1ccc(NC(=O)[C@H](Cc2ccccc2)N2Cc3ccccc3C2=O)cc1F`, the survival was inactive: 78%. The same measure for `CCOc1ccc(C2CC(=O)c3c([nH]c(C(=O)OC4CCCCCC4)c3C)C2)cc1` (stereo not given): inactive: 79%. The same measure for `COc1cc(OC)c(C(=O)NC2CC(C)(C)NC(C)(C)C2)cc1OC`: inactive: 109%; for `CCOCCc1nn2c(=O)cc(COC(=O)c3ccc4c(c3)OCO4)nc2s1`: inactive: 133%; for `CN(C(=O)CN1CCC(NC(=O)c2ccccc2Br)CC1)C1CCCCC1`: inactive: 119%. In the case of `Cc1nn(C)c2c1c(C(F)(F)F)cc(=O)n2C(C)C(=O)NCc1ccccc1` (stereo not given), the survival was inactive: 105%. The same measure for `COc1ccc(-c2nc(CS(=O)CC(=O)NCc3ccccc3Cl)c(C)o2)cc1OC` (stereo not given): inactive: 76%. Under `Cn1c(C(=O)Nc2cccc(Cl)c2)cc2c(=O)n(C)c3ccccc3c21` stands inactive: 85%; under `O=S(=O)(c1ccc(Br)cc1)N1CCn2cccc2C1c1ccc(Br)cc1` (stereo not given), inactive: 65%. Consider `Cc1ccc(CNc2nc3nc(C)c(Cl)c(C)n3n2)cc1`, for which the survival is inactive: 99%.

`Cc1cccc(NC(c2nnc(-c3ccccc3)o2)c2ccc(F)cc2Cl)c1C` (stereo not given): the survival is inactive: 55%. Under `Cc1oc2c(c(C)cc3oc(=O)c(CC(=O)NCCc4ccc(Cl)cc4)c(C)c32)c1C` stands inactive: 84%; under `Cc1ccc(Cl)cc1N1CCN(C(=O)C2CCN(S(=O)(=O)c3c(C)noc3/C=C/c3ccccc3F)CC2)CC1`, inactive: 71%; under `Cc1ccc(-c2cn3c(n2)sc2cc(C(=O)NC4CCCCCC4)ccc23)c(C)c1`, inactive: 79%. As for `COc1cccc(-c2cn3c(n2)sc2cc(C(=O)NCCc4ccccc4)ccc23)c1`, the survival was inactive: 37%. Turning to `Cc1ccc(C)c(N2CCN(CCCNC(=O)c3ccc4nc(C(C)C)oc4c3)CC2)c1`, the survival was inactive: 73%. The same measure for `N#CCSc1nnc(-c2ccccc2)n1-c1ccccc1`: inactive: 114%. The same measure for `CC(C)c1nn2c(=O)cc(COC(=O)COc3ccccc3F)nc2s1`: inactive: 85%. Turning to `CCc1ccccc1NC(=O)CSc1nc2ccccc2nc1Cc1cccc(OC)c1`, the survival was inactive: 75%.

Take `O=C(NCc1ccccc1)c1ccc2c(c1)sc1nc(-c3ccc(F)cc3)cn12`: the survival is inactive: 100%. Under `CCOC(=O)c1ccc(CN(Cc2ccc(Cl)cc2Cl)S(=O)(=O)c2cccc(Cl)c2)cc1` stands inactive: 73%; under `Cc1cc(-c2ccc(C)c(S(=O)(=O)N(C(C)C)C3CCCCC3)c2)on1`, inactive: 79%. Under `CC1(C)O[C@H]2[C@@H](O1)[C@@H](C(=O)Nc1cc(F)ccc1F)O[C@@H]1OC(C)(C)O[C@@H]12` stands inactive: 110%. For the compound `COc1ccc(CN(C2CCCC2)S(=O)(=O)c2ccc(-n3cnnn3)cc2)cc1`, the survival is inactive: 134%.

The values are drawn from PubChem BioAssay AID463173 (ICCB-Longwood Screening Facility, Harvard Medical School, 2010).
